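96-well plates; 48 h exposure; 5 concentrations. Endpoints by linear interpolation between flanking doses. Not reached: highest tested concentration assigned. Here, GI50 denotes the concentration required for 50% inhibition of growth.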 Not every entry of the source has a single result; some have several. This is not the full list of results. There may be further records. For part of these data: Results that share an entry are repeated measurements in other runs, samples, wells, individuals or studies. A tag in brackets gives the origin of a value. Letters count within one entry.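 The concentration for full growth arrest is given as TGI.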 For part of these data: The tests behind the records often covered other concentration ranges, which the source does not state; some values may only mark the edge of a range.
Assays:
Assay in all cases: NCI anticancer screen, dose series, 48 h
SNB-75 CNS = tested on: SNB-75 CNS
HOP-92 NSCLC = tested on: HOP-92 NSCLC
SK-MEL-2 melanoma = tested on: SK-MEL-2 melanoma
CAKI-1 renal = tested on: CAKI-1 renal
CCRF-CEM leukemia = tested on: CCRF-CEM leukemia
SF-539 CNS = tested on: SF-539 CNS
SR leukemia = tested on: SR leukemia
K-562 leukemia = tested on: K-562 leukemia
T-47D breast = tested on: T-47D breast
EKVX NSCLC = tested on: EKVX NSCLC
SK-OV-3 ovarian = tested on: SK-OV-3 ovarian
HS 578T breast = tested on: HS 578T breast
LOX IMVI melanoma = tested on: LOX IMVI melanoma
NCI-H460 lung = tested on: NCI-H460 lung
NCI/ADR-RES ovarian = tested on: NCI/ADR-RES ovarian
HCT-116 colon = tested on: HCT-116 colon

COc1cc(C2c3cc4c(cc3[C@@H](Nc3ccc(N)cc3)C3COC(=O)[C@H]23)OCO4)cc(OC)c1O (stereo partly drawn)
TGI (SNB-75 CNS): 953 nM and 24 µM
TGI (HOP-92 NSCLC): 875 nM and 13 µM

CC(=O)C1(O)Cc2c(O)c3c(c(O)c2C(OC2CC(N)C(O)C(C)O2)C1)C(=O)c1ccccc1C3=O (stereo not drawn)
TGI (SK-MEL-2 melanoma): 810 nM and 50.6 nM
TGI (CAKI-1 renal): 209 nM and 15.4 nM
TGI (CCRF-CEM leukemia): 29.8 nM and 320 nM

N#Cc1c2c(c(-c3cccs3)n(C3OC(CO)C(O)C(O)C3O)c1=S)CCc1ccccc1-2 (stereo not drawn)
GI50 (SF-539 CNS): 8.01 µM [sample A, mean of 2 tests] and > 100 µM [sample B, mean of 2 tests]

CCCCCc1c(C)[nH]c(/C=C2\N=C(c3ccc[nH]3)C=C2OCc2ccccc2)c1C
TGI (SR leukemia): 67.6 nM and > 100 µM
TGI (K-562 leukemia): 1.25 µM and > 100 µM
TGI (CAKI-1 renal): 1.36 µM and 102 nM
TGI (CCRF-CEM leukemia): 1.22 µM and > 100 µM

CCC1(O)CC(OC2CC(N(C)C)C(OC3CC(O)C(OC4CCC(=O)C(C)O4)C(C)O3)C(C)O2)c2c(O)c3c(c(O)c2C1C(=O)OC)C(=O)c1cccc(O)c1C3=O (stereo not drawn)
TGI (T-47D breast): 73 nM and 5.21 µM
TGI (EKVX NSCLC): 169 nM and 15.3 nM
TGI (SK-OV-3 ovarian): 177 nM and 9.31 µM
TGI (HS 578T breast): 22.1 nM and 1.27 µM
TGI (LOX IMVI melanoma): 112 nM and 3.24 µM
TGI (NCI-H460 lung): 15.2 nM and 1.17 µM
TGI (NCI/ADR-RES ovarian): 195 nM and 11.8 µM
TGI (HCT-116 colon): 300 nM and 11 µM

Source: PubChem BioAssay (NCI)
